# The whole screen tested about 110,000 compounds, of which about 230 (0.21%) showed an effect of 50% or more. Some of the results follow.
# Biological target: DPAP1 (Plasmodium falciparum, UniProt Q8IIJ9)
# Experiment: primary screen, percent inhibition; read by cleavage of a fluorogenic dipeptide substrate; higher = more effect of the substance
# Set-up: species or system P. falciparum D10 trophozoite lysates; single well
# 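Also: 30 min substrate incubation versus DMSO and 10 µM JCP410 controls.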
# DPAP1, sequence (Q8IIJ9 whole entry, looked up): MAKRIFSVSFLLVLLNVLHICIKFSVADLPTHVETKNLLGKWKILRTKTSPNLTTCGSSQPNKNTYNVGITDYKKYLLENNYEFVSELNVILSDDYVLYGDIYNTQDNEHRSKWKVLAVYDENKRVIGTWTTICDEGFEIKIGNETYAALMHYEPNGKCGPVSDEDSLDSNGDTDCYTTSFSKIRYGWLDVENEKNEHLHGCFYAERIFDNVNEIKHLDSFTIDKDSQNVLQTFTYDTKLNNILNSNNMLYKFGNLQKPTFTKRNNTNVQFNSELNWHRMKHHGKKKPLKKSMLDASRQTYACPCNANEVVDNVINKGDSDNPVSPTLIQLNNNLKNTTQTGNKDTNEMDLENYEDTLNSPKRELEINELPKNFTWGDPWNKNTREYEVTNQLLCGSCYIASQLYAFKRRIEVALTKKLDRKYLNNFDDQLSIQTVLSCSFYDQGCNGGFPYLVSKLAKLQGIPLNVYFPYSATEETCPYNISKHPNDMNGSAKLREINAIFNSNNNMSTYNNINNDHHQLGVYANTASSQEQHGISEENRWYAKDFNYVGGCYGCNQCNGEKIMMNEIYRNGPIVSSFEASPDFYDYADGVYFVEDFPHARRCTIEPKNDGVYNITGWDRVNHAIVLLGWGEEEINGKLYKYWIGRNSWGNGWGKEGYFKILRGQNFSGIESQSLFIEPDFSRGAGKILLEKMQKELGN
row,SMILES,% Inhibition @ 10 uM [%]
1,COc1ccc(C2C(C(=O)Nc3ccc(F)cc3)=C(C)Nc3nc(CCCO)nn32)cc1OC (centres unmarked),-10.2
2,CN(C)CCCN(CCCN(C)C)C1CC2CCC1C2 (centres unmarked),-1.5
3,Cc1ccc(C)c(OCCCCn2ccnc2)c1,-5.9
4,O=C(NCc1cccs1)C1CCCN(S(=O)(=O)c2ccc(Br)s2)C1 (centres unmarked),-1.92
5,NC(=O)C1CCN(Cc2ccccc2C(F)(F)F)CC1,-2.95
6,COc1cccc(C2C(C#N)=C(N)Oc3[nH]nc(-c4ccccn4)c32)c1 (centres unmarked),-4.43
7,COC(=O)c1ccc(Oc2ccc(C#N)cc2)cc1,-3.55
8,CCCC(C#N)NC(=O)[C@H](CC(C)C)NC(=O)OCc1ccccc1 (some centres unmarked),0.174
9,CCCn1c(NCc2ccc(OCC)cc2)nc2ccccc21,1.64
10,CN1CCN(S(=O)(=O)c2ccc(F)cc2)CC1,0.526
11,COc1ccc(OC)c(C2NC(=O)NC(C)=C2C(=O)OCCc2ccccc2)c1Br (centres unmarked),4.41
12,O=C(O)CCCCCN1C(=O)C(O)=C(C(=O)c2ccc(F)cc2)C1c1ccccc1F (centres unmarked),-5.63
13,CC(C)C(=O)Nc1ccc(Cc2ccc(NC(=O)C(C)C)c(O)c2)cc1O,-0.519
14,CNC(=O)c1ccc(-c2nc(CS(=O)(=O)c3ccc(C)cc3)c(C)o2)cc1,-6.11
15,CC(C)=C1C2C=CC1C1C(=O)N(CCO)C(=O)C21 (centres unmarked),1.4
16,CCOc1ccc2nc(N3CCCC(C(=O)NC4CCCCC4C)C3)sc2c1 (centres unmarked),4.95
17,C/N=C1/S/C(=C/c2c(O)ccc3ccccc23)C(=O)N1C,33.9
18,CCNC(=O)c1ccc2c(c1)c(C)c(C)n2Cc1ccccc1,3.78
19,O=C(NCc1cccnc1)c1cc(-c2ccc(Br)cc2)on1,-3.36
20,OC(CN1CCN(c2cccnc2)CC1)Cn1nnnc1-c1ccccc1 (centres unmarked),0.974
21,Cc1ccccc1NC(=O)c1ccc(N)cc1C(=O)O,-4.96
22,Cc1cccn2c(=O)c(/C=C3\SC(=S)NC3=O)c(NCc3ccco3)nc12,-1.33

row,SMILES,% Inhibition @ 10 uM [%]
1,COc1ccc(C(=O)Nc2ccc(C)cc2Br)cc1,-11
2,COc1ccc(C(=O)OCCNc2nc(-c3ccccc3)nc3ccccc23)cc1,-0.169
3,CC(=O)Nc1ccc(C(=O)Nc2ccc(S(N)(=O)=O)cc2)cc1,0.317
4,CC(C)OCCCn1c(SCC(=O)NC2CCCC2)nc2c(sc3ccccc32)c1=O,5.89
5,CC1=C(C#N)C(Nc2nccs2)(C(F)(F)F)C(=O)N1 (centres unmarked),-3.33
6,O=C(c1cc2nc(-c3ccco3)cc(C(F)(F)F)n2n1)N1CCc2ccccc2C1,-6.7
7,FC(F)(F)c1nnc2sc(-c3ccc4c(c3)OCCO4)nn12,0.635
8,CCOC(=O)c1cc(C)n(-c2ccc(C)c(C)c2)c1C,-1.75
9,O=C(O)Cn1ncc2c3ccccc3n(Cc3ccc(Cl)cc3)c2c1=O,4.79
10,COc1ccc(C2=NS(=O)(=O)N(C)C(C(=O)N(C)Cc3ccccc3)=C2)cc1,-2.84
11,N#Cc1ccccc1NC(=O)c1ccc(-c2ccccc2)cc1,-1.76
12,Cc1ccnc(NS(=O)(=O)c2ccc3ccccc3c2)n1,-4.06
13,COc1ccc(OCCCSC(C)C)cc1,-1.64
14,Cc1cc2oc3c(c(=O)c2cc1C)C(c1ccccc1F)N(c1nccs1)C3=O (centres unmarked),-3.13
15,COc1ccc(CCNc2nc(C)cc(C(F)(F)F)n2)cc1OC,1.23
16,O=C(NCc1ccc(Cl)cc1)c1ccc2nc(N3CCCCC3)sc2c1,4.22
17,Cc1cccc(/C=C2\SC(=O)N(c3ccccc3)C2=O)n1,-11.5
18,CN1CCN(C(=O)c2ccc(F)c(F)c2)CC1,2.18
19,CC1CCN(S(=O)(=O)c2ccc(NC(=O)c3ccc(Br)cc3)cc2)CC1,-9.26
20,CCCCN1C(=O)c2cccc3cccc(c23)C1=O,7.64
21,O=C(NCC1CCCO1)c1cc2nc(-c3ccco3)cc(C(F)(F)Cl)n2n1 (centres unmarked),8.93
22,Cc1ccccc1C(=O)Nc1ccccc1F,3.74

row,SMILES,% Inhibition @ 10 uM [%]
1,COc1ccc(Nc2cccc(C(F)(F)F)c2)c(C(=O)O)c1,3.81
2,O=C(Nc1ccc(S(=O)(=O)Nc2ccc(F)cc2)cc1)c1ccccc1Br,-5.44
3,Cc1ccc(S(=O)(=O)c2cnc3ccncc3c2O)cc1,1.02
4,Cc1cc(C)c(C)c(S(=O)(=O)NCc2ccc(C(=O)N3CCN(C)CC3)cc2)c1C,0.145
5,CC1=C(C#N)C(=O)N(CCO)C(=O)/C1=C\c1ccc(-c2ccccc2)o1,-1.26
6,CCN(CC)c1nc(Nc2ccc(C)cc2)nc(N(CC)CC)n1,-4.23
7,CC(C)c1ccc(CN(C(=O)c2cc(=O)c3cc(Cl)ccc3o2)C2CCS(=O)(=O)C2)cc1 (centres unmarked),5.06
8,CCc1ccc(-c2cn3ccsc3n2)cc1,-4.03
9,O=C(O)C1CCN(C(=O)c2ccc(Cl)cc2)CC1,-0.992
10,COc1ccc(C2=N/C(=C\C(Cl)=C\c3ccccc3)C(=O)O2)cc1Br,5.01
11,CCOC(=O)c1cnn(-c2ccccc2Cl)c1C1CCN(C(=O)OC(C)(C)C)CC1,3.96
12,O=C(Nc1ccc(F)c(F)c1)c1ccc(C(=O)Nc2ccc(F)c(F)c2)nc1,-5.69
13,CC1=CC2=NC(=O)/C(=C\c3ccc(Sc4ccc(Cl)cc4)o3)C(=N)N2O1,3.63
14,O=C(CCSc1nc2cc(Cl)ccc2o1)N1CCCC1,-3.45
15,O=C(O)C1C(=O)NCC1c1ccccc1 (centres unmarked),7.09
16,CCC(=O)Nc1ccc(N(CC)CC)cc1C,-2.65
17,CC1(C)CC(=O)c2c(nc(SC3C=CCCC3)c(C#N)c2-c2ccccc2)C1 (centres unmarked),-0.591
18,Cc1[nH]c2ccccc2c1C1=CCN(S(=O)(=O)c2cccc3nsnc23)CC1,-1.08
19,Cc1cc(C)c(C2C(C#N)=C(N)OC3=C2C(=O)CCC3)c(C)c1 (centres unmarked),23.3
20,COc1ccc(/C=C/C(=O)C2(O)CCCCC2)cc1OC,0.9
21,COc1ccc(Nc2cc(C)nc(Nc3ccc(OC)cc3)n2)cc1,-10.9

# Source: PMC6919601, “Identification of Plasmodium dipeptidyl aminopeptidase allosteric inhibitors by high throughput screening” (PLoS ONE, 2019)
